PubChem BioAssay AID2675 (National Center for Advancing Translational Sciences (NCATS), 2010)
Out of some 280,000 compounds screened, about 100 (0.036%) were called active. Inconclusive results, whose numbers are uncertain, are shown with a selection of clear calls. Calls come from the whole dose curve; as a rule, active = well fitted inhibition curve with a large enough effect in the signal ratio, with a control signal flat (not every such curve was filed as active); inconclusive = small, poorly fitted or top-dose-only effect, or effect the other way, or a change in a side signal; inactive = no such curve, though single readings can be large or run the other way; the % refers to the signal ratio. Potencies beside an inconclusive call are fits to weak or partial responses and may not hold up. A note “side channel” means that the fit belongs to a control or component signal, not to the main read-out.

biological target: Muscleblind-like protein 1 (Homo sapiens) (UniProt Q9NR56); test: qHTS Assay for Inhibitors of MBNL1-poly(CUG) RNA binding; conditions: TR-FRET MBNL1-His/biotin-(CUG)12 binding, 665/545 ratio; series mostly up to 57.5 µM
Outline: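 MBNL1-His + Biotin-(CUG)12, cpd titration 92 nM–58 uM; Tb anti-His Ab 0.055 ng/ul, SA-XL665 5 nM (final); 60 min RT; ratiometric 665/545 nm, Ex 340 nm; normalized to buffer and full-complex controls.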
Potency is the fitted concentration of half-maximal effect; tags give direction and shape of the fitted curve or compound fluorescence and quenching.

Chain of UniProt Q9NR56 (Q9NR56 whole entry, looked up): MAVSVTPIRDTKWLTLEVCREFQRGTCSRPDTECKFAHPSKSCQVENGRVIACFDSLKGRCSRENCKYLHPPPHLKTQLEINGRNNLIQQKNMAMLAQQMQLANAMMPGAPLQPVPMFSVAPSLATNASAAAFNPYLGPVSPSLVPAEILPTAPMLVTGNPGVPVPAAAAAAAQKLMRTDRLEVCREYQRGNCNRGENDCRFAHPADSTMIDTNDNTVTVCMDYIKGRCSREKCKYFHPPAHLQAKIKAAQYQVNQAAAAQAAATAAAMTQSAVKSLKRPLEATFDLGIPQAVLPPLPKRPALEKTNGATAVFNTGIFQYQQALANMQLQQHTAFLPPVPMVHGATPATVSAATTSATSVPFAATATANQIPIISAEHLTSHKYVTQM

SMILES | Potency
CCOC(=O)N1CCN(C(=O)c2ccc(Oc3ccc([N+](=O)[O-])cc3)cc2)CC1 | inconclusive: 28.2 µM [quencher, side channel, partial curve]
CCOC(=O)c1cc2c(=O)n3cccc(C)c3nc2n(C)c1=N | inconclusive: 10 µM [quencher, side channel, partial curve, poor fit]
CSc1sc(C)cc1C=O | inactive
CCC(=O)NC(c1ccc([N+](=O)[O-])cc1)c1c(O)ccc2ccccc12 (stereo unspecified) | inactive
CCOc1ccc(CNc2ccc(CNc3ncn[nH]3)cc2)cc1 | inactive
Cc1ccc2nsnc2c1S(=O)(=O)N1CCCC1C(=O)O (stereo unspecified) | inconclusive: 14.1 µM [quencher, partial curve]
Cc1cc(NC(=O)COC(=O)C2=COCCO2)c([N+](=O)[O-])cc1C | inconclusive: 15.8 µM [quencher, partial curve]
Cc1sc2ncnc(SCC(=O)NC3CCCC3)c2c1C | inconclusive: 31.6 µM [fluorescent, side channel, single point]
COc1ccc(/C=N/NC2=NS(=O)(=O)c3ccccc32)cc1OC | inconclusive: 22.4 µM [quencher, side channel, partial curve]
Cc1cc(C(=O)N/N=C/C=C/c2ccc3c(c2)OCO3)n[nH]1 | inconclusive: 25.1 µM [quencher, side channel, partial curve]
CC(=NC1CCCCC1)C1=C(O)c2ccccc2C1=O | inconclusive: 15.8 µM [quencher, side channel, partial curve, poor fit]
CC1CC(C)CN(C/C=C/c2ccccc2[N+](=O)[O-])C1 (stereo unspecified) | inconclusive: 17.8 µM [quencher, side channel, partial curve, poor fit]
Cn1c(=O)c2cc(S(=O)(=O)NC(C(=O)Nc3cccc(F)c3)c3ccccc3)ccc2n(C)c1=O (stereo unspecified) | inactive
OCCC1CN(Cc2ccc(F)cc2)CCN1CCCc1ccccc1 (stereo unspecified) | inactive
Cc1nnc(NC(=O)CCCCCN2C(=O)C3C4C=CC(C4)C3C2=O)s1 (stereo unspecified) | inactive
Cc1ccc(/C=C2/C(=O)c3ccc(C(=O)O)cc3C2=O)o1 | inconclusive: 17.8 µM [quencher, side channel, partial curve]
CCN1CCN(C(c2ccccc2)c2nnnn2Cc2ccc(OC)cc2)CC1 (stereo unspecified) | inactive
CN(C)C(=S)N=Nc1[nH]c2ccccc2c1O | inconclusive: 15.8 µM [quencher, side channel, partial curve]
CCn1c(SCC(=O)Nc2nccs2)nnc1-c1ccc(S(=O)(=O)N2CCCCCC2)cc1 | inactive
COc1ccc(CCNC(=O)c2cc3c(=O)n4ccccc4nc3n(CCCN3CCOCC3)c2=N)cc1 | inconclusive: 2.82 µM [quencher, side channel, full curve]
CCCOc1ccc(NC(N)=O)cc1OCCC | inconclusive: 6.31 µM [fluorescent, side channel, single point]

SMILES | Potency
COc1ccccc1OCCn1nnc2ccccc21 | inactive
O=C1N=C(N2CCCCC2)S/C1=C\c1ccccc1F | inconclusive: 22.4 µM [quencher, side channel, single point]
COc1ccc(C2/C(=C(/O)c3ccccc3)C(=O)C(=O)N2C)c(OC)c1 (stereo unspecified) | inconclusive: 25.1 µM [quencher, side channel, partial curve]
Cc1cc(C)n2[nH]c(=O)c(N=Nc3ccccc3)c2n1 | inconclusive: 14.1 µM [quencher, side channel, partial curve]
Cn1nccc1NC(=O)Nc1cccc([N+](=O)[O-])c1 | inconclusive: 17.8 µM [quencher, side channel, partial curve]
C=CCc1cccc(/C=N/NC(=O)c2ccc3nc[nH]c3c2)c1O | inactive
O=C(Nc1cccc(C(=O)O)c1)/C(=C/c1ccc([N+](=O)[O-])cc1)NC(=O)c1ccccc1 | inconclusive: 14.1 µM [quencher, side channel, partial curve]
NC(N)=N/N=C/c1cccc([N+](=O)[O-])c1O | inconclusive: 11.2 µM [quencher, side channel, partial curve]
Nc1nccc(/C=C/c2ccc(Cl)cc2)n1 | inconclusive: 14.1 µM [quencher, side channel, partial curve]
COC(=O)c1sc(NC(=O)c2c(OC)cccc2OC)c(C#N)c1C | inactive
O=C(NNc1c2ccccc2nc2ccccc12)c1ccc(O)cc1 | inconclusive: 15.8 µM [quencher, side channel, partial curve]
Cc1ccccc1NS(=O)(=O)c1cccc2nsnc12 | inconclusive: 17.8 µM [quencher, side channel, partial curve]
Cc1ccc(N2C(=O)c3ccc(C(=O)N4CCOCC4)cc3C2=O)cc1C | inconclusive: 25.1 µM [quencher, single point]
O=C(c1ccc2c3c(cccc13)C(=O)N(O)C2=O)N1CCCCC1 | inconclusive: 5.62 µM [quencher, side channel, full curve]
COC(=O)c1sccc1NC(=O)c1cc(-c2cc(C)ccc2C)nc2ccccc12 | inactive
CSc1ccccc1NC(=O)Cn1nc([N+](=O)[O-])c(Cl)c1C | inconclusive: 28.2 µM [quencher, side channel, single point]
O=c1oc2ccccc2c(CNc2ccccc2)c1[N+](=O)[O-] | inconclusive: 0.794 µM [quencher, side channel, full curve, poor fit]
O=C(COC(=O)c1cccc([N+](=O)[O-])c1)NCc1cccs1 | inconclusive: 25.1 µM [quencher, side channel, partial curve]
CCSc1ccc2cc(OC)ccc2[n+]1CC | inconclusive: 17.8 µM [quencher, side channel, partial curve]
CC1CCN(C(=O)c2ccc(S(=O)(=O)Cc3ccccc3F)c([N+](=O)[O-])c2)CC1 | inconclusive: 0.501 µM [quencher, side channel, full curve, poor fit]
Cc1c([N+](=O)[O-])cc(S(=O)(=O)Nc2ccncc2)cc1[N+](=O)[O-] | inconclusive: 12.6 µM [quencher, side channel, partial curve]

SMILES | Potency
CCOc1ccccc1NS(=O)(=O)c1ccc2c(c1)n(C)c(=O)c(=O)n2C | inconclusive: 100 µM [inhibitor, partial curve, poor fit]
CCOc1cccc(C=Nc2cc(C)cc(C)c2O)c1O | inconclusive: 31.6 µM [quencher, side channel, single point]
COc1ccc(-c2nc3c(s2)CN(S(C)(=O)=O)CC3)cc1OC | inconclusive: 28.2 µM [quencher, side channel, partial curve]
COc1ccc(OC)c(-c2cc(C(=O)N3CCc4ccccc4C3)no2)c1 | inactive
CCOc1cc(CNc2ccc(O)cc2)cc(Br)c1OCc1ccccc1F | inconclusive: 12.6 µM [quencher, side channel, partial curve]
O=C(/C(=C/O)N=Nc1ccccc1)c1ccncc1 | inconclusive: 11.2 µM [quencher, side channel, partial curve]
Cc1ccc(C2C(C#N)=C(N)Oc3c2oc(CO)cc3=O)o1 (stereo unspecified) | inconclusive: 8.91 µM [quencher, side channel, partial curve]
Cc1nnc(SCC(=O)N2CCCCCC2)n(N)c1=O | inactive
CCS(=O)(=O)NCCNc1ccc([N+](=O)[O-])cc1 | inconclusive: 4.47 µM [quencher, side channel, full curve]
N/C(=N\OCc1ccc([N+](=O)[O-])cc1)c1ccncc1 | inconclusive: 20 µM [quencher, side channel, partial curve]
CCCC(=O)OCCNc1cc(Sc2nc3ccccc3[nH]2)c2nonc2c1[N+](=O)[O-] | inconclusive: 8.91 µM [quencher, side channel, partial curve]
O=C(Nc1ccncc1)c1ccc2c(c1)S(=O)(=O)c1ccccc1C2=O | inconclusive: 2.82 µM [quencher, partial curve, poor fit]
COc1ccc(-c2nc(N)ncc2Oc2ccccc2Br)c(O)c1 | inconclusive: 35.5 µM [fluorescent, side channel, single point]
CN(C)C(CNC(=O)CCCN1C(=O)c2cccc3cccc(c23)C1=O)c1ccccc1 (stereo unspecified) | inconclusive: 12.6 µM [quencher, side channel, partial curve]
Cc1ccc(C)c(C(=O)COC(=O)CCCC(=O)Nc2cc(C(F)(F)F)ccc2Cl)c1 | inconclusive: 0.0891 µM [fluorescent, side channel, full curve, poor fit]
O=C(Nc1ccc(Cl)c(C(F)(F)F)c1)N1CCCC(O)C1 (stereo unspecified) | inconclusive: 31.6 µM [quencher, side channel, single point]
O=C(N/N=C/c1cccc([N+](=O)[O-])c1)C1CC(=O)N(c2ccc(F)cc2)C1 (stereo unspecified) | inconclusive: 14.1 µM [quencher, side channel, partial curve, poor fit]
CC(C)NC(=O)CNc1ccc(C(F)(F)F)cc1[N+](=O)[O-] | inconclusive: 10 µM [quencher, side channel, partial curve]
COc1cc(/C=N/NC(=O)c2ccc(Cl)c(S(N)(=O)=O)c2)ccc1OCC(N)=O | inconclusive: 35.5 µM [quencher, side channel, single point]
